Reference: PMC12102759 (2025)

B1: NFE2L1 peptide 226-241 (Endoplasmic reticulum membrane sensor NFE2L1), 16-mer library wild type / KEAP1 KELCH (KEAP1 6 Kelch repeats, […]) (parent complex)
chain 1: RNLLVDGETGESFPAQ
chain 2: not shown
B2: CAPRIN1 peptide 364-379 (Caprin-1), 16-mer library wild type / G3BP1 NFT2 (G3BP1 NTF2 domain, […]) (parent complex)
chain 1: AQMQGPYNFIQDSMLD
chain 2: not shown

Variants of: B1
Test: proteomic peptide phage display deep mutational scan (ProP-PD DMS): M13 P8 16-mer library selected against immobilised GST-tagged bait for four days (rounds), NGS of the eluted pools per day and pseudo-replica; bait immobilised on MaxiSorp plates (10 µg), library pre-cleared on GST, 2 h binding at 4 °C, five washes; one round per day, days 1-4; value from days 2 and 3

In order of falling screen value:
1. chain 1 E8G  0.0476 average fractional NGS count over selection days 2 and 3 (reads of this peptide / all reads for the bait, averaged over …
2. chain 1 D6H  0.0427 average fractional NGS count over selection days 2 and 3 (reads of this peptide / all reads for the bait, averaged over …
3. chain 1 L3M  0.00994 average fractional NGS count over selection days 2 and 3 (reads of this peptide / all reads for the bait, averaged over …
4. chain 1 L4P  0.00704 average fractional NGS count over selection days 2 and 3 (reads of this peptide / all reads for the bait, averaged over …
5. chain 1 G7H  0.00649 average fractional NGS count over selection days 2 and 3 (reads of this peptide / all reads for the bait, averaged over …
6. chain 1 E8V  0.00531 average fractional NGS count over selection days 2 and 3 (reads of this peptide / all reads for the bait, averaged over …
7. chain 1 L3E  0.00523 average fractional NGS count over selection days 2 and 3 (reads of this peptide / all reads for the bait, averaged over …
8. chain 1 G7M  0.00399 average fractional NGS count over selection days 2 and 3 (reads of this peptide / all reads for the bait, averaged over …
9. chain 1 P14S  0.00361 average fractional NGS count over selection days 2 and 3 (reads of this peptide / all reads for the bait, averaged over …
10. chain 1 N2L  0.00329 average fractional NGS count over selection days 2 and 3 (reads of this peptide / all reads for the bait, averaged over …
11. chain 1 Q16V  0.00235 average fractional NGS count over selection days 2 and 3 (reads of this peptide / all reads for the bait, averaged over …
12. chain 1 P14L  0.00233 average fractional NGS count over selection days 2 and 3 (reads of this peptide / all reads for the bait, averaged over …
13. chain 1 L3Q  0.00206 average fractional NGS count over selection days 2 and 3 (reads of this peptide / all reads for the bait, averaged over …
14. chain 1 N2F  0.00201 average fractional NGS count over selection days 2 and 3 (reads of this peptide / all reads for the bait, averaged over …
15. chain 1 V5P  0.00194 average fractional NGS count over selection days 2 and 3 (reads of this peptide / all reads for the bait, averaged over …
16. chain 1 F13R  0.00194 average fractional NGS count over selection days 2 and 3 (reads of this peptide / all reads for the bait, averaged over …
17. chain 1 Q16F  0.00184 average fractional NGS count over selection days 2 and 3 (reads of this peptide / all reads for the bait, averaged over …
18. chain 1 F13Y  0.00158 average fractional NGS count over selection days 2 and 3 (reads of this peptide / all reads for the bait, averaged over …
19. chain 1 N2V  0.00151 average fractional NGS count over selection days 2 and 3 (reads of this peptide / all reads for the bait, averaged over …
20. chain 1 D6Q  0.00147 average fractional NGS count over selection days 2 and 3 (reads of this peptide / all reads for the bait, averaged over …
21. chain 1 S12A  0.00138 average fractional NGS count over selection days 2 and 3 (reads of this peptide / all reads for the bait, averaged over …
22. chain 1 T9S  0.00132 average fractional NGS count over selection days 2 and 3 (reads of this peptide / all reads for the bait, averaged over …
23. chain 1 L4Q  0.00122 average fractional NGS count over selection days 2 and 3 (reads of this peptide / all reads for the bait, averaged over …
24. chain 1 L4N  0.00115 average fractional NGS count over selection days 2 and 3 (reads of this peptide / all reads for the bait, averaged over …
25. chain 1 N2G  0.00103 average fractional NGS count over selection days 2 and 3 (reads of this peptide / all reads for the bait, averaged over …
26. chain 1 V5G  0.000935 average fractional NGS count over selection days 2 and 3 (reads of this peptide / all reads for the bait, averaged over …
27. chain 1 E8D  0.000913 average fractional NGS count over selection days 2 and 3 (reads of this peptide / all reads for the bait, averaged over …
28. chain 1 F13W  0.000898 average fractional NGS count over selection days 2 and 3 (reads of this peptide / all reads for the bait, averaged over …
29. chain 1 D6Y  0.000835 average fractional NGS count over selection days 2 and 3 (reads of this peptide / all reads for the bait, averaged over …
30. chain 1 L4H  0.000811 average fractional NGS count over selection days 2 and 3 (reads of this peptide / all reads for the bait, averaged over …
31. chain 1 L3W  0.000758 average fractional NGS count over selection days 2 and 3 (reads of this peptide / all reads for the bait, averaged over …
32. chain 1 V5L  0.000716 average fractional NGS count over selection days 2 and 3 (reads of this peptide / all reads for the bait, averaged over …
33. chain 1 L3A  0.000703 average fractional NGS count over selection days 2 and 3 (reads of this peptide / all reads for the bait, averaged over …
34. chain 1 T9N  0.000633 average fractional NGS count over selection days 2 and 3 (reads of this peptide / all reads for the bait, averaged over …
35. chain 1 Q16K  0.00058 average fractional NGS count over selection days 2 and 3 (reads of this peptide / all reads for the bait, averaged over …
36. chain 1 S12T  0.000578 average fractional NGS count over selection days 2 and 3 (reads of this peptide / all reads for the bait, averaged over …
37. chain 1 V5M  0.000559 average fractional NGS count over selection days 2 and 3 (reads of this peptide / all reads for the bait, averaged over …
38. chain 1 A15M  0.000532 average fractional NGS count over selection days 2 and 3 (reads of this peptide / all reads for the bait, averaged over …
39. chain 1 E11T  0.000515 average fractional NGS count over selection days 2 and 3 (reads of this peptide / all reads for the bait, averaged over …
40. chain 1 S12H  0.000505 average fractional NGS count over selection days 2 and 3 (reads of this peptide / all reads for the bait, averaged over …
41. chain 1 E11H  0.000503 average fractional NGS count over selection days 2 and 3 (reads of this peptide / all reads for the bait, averaged over …
42. chain 1 N2H  0.00048 average fractional NGS count over selection days 2 and 3 (reads of this peptide / all reads for the bait, averaged over …
43. chain 1 P14Q  0.000451 average fractional NGS count over selection days 2 and 3 (reads of this peptide / all reads for the bait, averaged over …
44. chain 1 S12L  0.000448 average fractional NGS count over selection days 2 and 3 (reads of this peptide / all reads for the bait, averaged over …
45. chain 1 S12R  0.000442 average fractional NGS count over selection days 2 and 3 (reads of this peptide / all reads for the bait, averaged over …
46. chain 1 G7N  0.000405 average fractional NGS count over selection days 2 and 3 (reads of this peptide / all reads for the bait, averaged over …
47. chain 1 F13I  0.000387 average fractional NGS count over selection days 2 and 3 (reads of this peptide / all reads for the bait, averaged over …
48. chain 1 S12V  0.000339 average fractional NGS count over selection days 2 and 3 (reads of this peptide / all reads for the bait, averaged over …
49. chain 1 S12E  0.000332 average fractional NGS count over selection days 2 and 3 (reads of this peptide / all reads for the bait, averaged over …
50. chain 1 L4M  0.000325 average fractional NGS count over selection days 2 and 3 (reads of this peptide / all reads for the bait, averaged over …
51. chain 1 Q16T  0.00032 average fractional NGS count over selection days 2 and 3 (reads of this peptide / all reads for the bait, averaged over …
52. chain 1 S12F  0.000312 average fractional NGS count over selection days 2 and 3 (reads of this peptide / all reads for the bait, averaged over …
53. chain 1 E11V  0.000298 average fractional NGS count over selection days 2 and 3 (reads of this peptide / all reads for the bait, averaged over …
54. chain 1 L4D  0.000281 average fractional NGS count over selection days 2 and 3 (reads of this peptide / all reads for the bait, averaged over …
55. chain 1 V5I  0.000268 average fractional NGS count over selection days 2 and 3 (reads of this peptide / all reads for the bait, averaged over …
56. chain 1 V5F  0.000252 average fractional NGS count over selection days 2 and 3 (reads of this peptide / all reads for the bait, averaged over …
57. chain 1 Q16G  0.00024 average fractional NGS count over selection days 2 and 3 (reads of this peptide / all reads for the bait, averaged over …
58. chain 1 Q16P  0.000232 average fractional NGS count over selection days 2 and 3 (reads of this peptide / all reads for the bait, averaged over …
59. chain 1 L4Y  0.000215 average fractional NGS count over selection days 2 and 3 (reads of this peptide / all reads for the bait, averaged over …
60. chain 1 S12Y  0.000205 average fractional NGS count over selection days 2 and 3 (reads of this peptide / all reads for the bait, averaged over …
61. chain 1 A15T  0.000185 average fractional NGS count over selection days 2 and 3 (reads of this peptide / all reads for the bait, averaged over …
62. chain 1 D6F  0.000181 average fractional NGS count over selection days 2 and 3 (reads of this peptide / all reads for the bait, averaged over …
63. chain 1 P14T  0.00017 average fractional NGS count over selection days 2 and 3 (reads of this peptide / all reads for the bait, averaged over …
64. chain 1 E8N  0.000163 average fractional NGS count over selection days 2 and 3 (reads of this peptide / all reads for the bait, averaged over …
65. chain 1 Q16A  0.000163 average fractional NGS count over selection days 2 and 3 (reads of this peptide / all reads for the bait, averaged over …
66. chain 1 Q16E  0.000148 average fractional NGS count over selection days 2 and 3 (reads of this peptide / all reads for the bait, averaged over …
67. chain 1 F13H  0.000138 average fractional NGS count over selection days 2 and 3 (reads of this peptide / all reads for the bait, averaged over …
68. chain 1 D6M  0.000129 average fractional NGS count over selection days 2 and 3 (reads of this peptide / all reads for the bait, averaged over …
69. chain 1 F13N  0.000127 average fractional NGS count over selection days 2 and 3 (reads of this peptide / all reads for the bait, averaged over …
70. chain 1 T9H  0.000108 average fractional NGS count over selection days 2 and 3 (reads of this peptide / all reads for the bait, averaged over …

Variants of: B2
Test: as above

In order of rising screen value:
1. chain 1 A1M  0.000181 average fractional NGS count over selection days 2 and 3 (reads of this peptide / all reads for the bait, averaged over …
2. chain 1 D12H  0.000291 average fractional NGS count over selection days 2 and 3 (reads of this peptide / all reads for the bait, averaged over …
3. chain 1 Y7V  0.000965 average fractional NGS count over selection days 2 and 3 (reads of this peptide / all reads for the bait, averaged over …
4. chain 1 M14I  0.00149 average fractional NGS count over selection days 2 and 3 (reads of this peptide / all reads for the bait, averaged over …
5. chain 1 Q2Y  0.00483 average fractional NGS count over selection days 2 and 3 (reads of this peptide / all reads for the bait, averaged over …
